In the supplement of paper PMC3334620:
The full ranking holds about 33,000 sequences; the median of “E-score (-0.5 to 0.5)” is about -0.017, and the highest 2% start at about 0.3. This is one part of the list.

Target: T1, Sut1 (UniProt P53032)
T1 sequence: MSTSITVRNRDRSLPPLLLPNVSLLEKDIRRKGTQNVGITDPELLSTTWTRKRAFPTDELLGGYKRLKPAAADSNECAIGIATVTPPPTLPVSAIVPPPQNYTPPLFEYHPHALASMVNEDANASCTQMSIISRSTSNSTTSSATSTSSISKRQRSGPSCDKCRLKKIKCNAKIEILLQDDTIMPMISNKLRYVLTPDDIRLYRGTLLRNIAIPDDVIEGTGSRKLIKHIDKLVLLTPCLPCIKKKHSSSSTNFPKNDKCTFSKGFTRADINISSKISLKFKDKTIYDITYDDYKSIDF
Experiment: PBM E-score (8-mer binding enrichment) (E-score (-0.5 to 0.5)); higher = stronger / more preferred TF binding; most listed sequences are background and not binding sites
Details: protein concentration: 200 nM; construct: GST-full length
Summary of the method: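 PURExpress in vitro transcription/translation supplied GST-tagged yeast transcription factors, either full-length or DNA-binding domain. Applied at about 100-200 nM to universal all-10-mer Agilent arrays double-stranded by primer extension, the bound protein was detected with fluorescent anti-GST. E-scores, modified Wilcoxon-Mann-Whitney statistics, were given by the Universal PBM Analysis Suite to ungapped eight-base words pooled with their reverse complements after masliner normalisation.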

Sequence	PBM E-score
CAGCGTGA	-0.169
GACGAAAC	0.054
ACATTCCC	0.046
ATACCCAC	-0.14
ATTCGACG	-0.035
AGTGTGGA	0.0491
TATTCAAA	0.212
AGGTTTGC	-0.0806
ACTATGGC	-0.0581
GGTGCGCA	-0.116
GCGCGCGA	-0.0696
ACAGATGT	-0.0948
AGTCGACT	0.246
ACTTGGAG	-0.075
ACTGAACC	0.0393
CTGATGTC	0.0719
GGGCATCA	-0.237
AACGGCGA	0.0997
GACTGATA	0.0856
CGGTACAC	-0.215
ACTAACGC	-0.085
AACAAGAC	0.0516
AGCTCCGC	0.331
AGGGGGGA	-0.302
AATGGTGC	0.0132

Sequence	PBM E-score
ATTCTTCA	0.195
AATATCTG	0.00496
TAGTTCCA	0.143
CACTGGGA	-0.173
CCAATGCC	-0.15
ACGTATCT	-0.0263
GCACTACA	-0.216
ATCGATTA	0.0962
AAGGGCCT	-0.122
ATTTAACG	0.298
AATGTTGG	0.0168
GAAACCGC	0.0576
CGTAGCCC	-0.274
AATGGACG	0.196
GAGCGTCC	-0.165
AGAGTCGC	-0.0597
ATGACACC	-0.0718
ACTCCTAG	-0.0737
GGGGCTGA	-0.293
TCGGAACA	0.303
AGCATTCG	0.0505
GGATCTTA	-0.00032
ATCATAAC	0.204
CCAGTAGA	-0.112
CTAGAAGC	-0.0707

Sequence	PBM E-score
AGGATGCC	-0.205
ACAGATTA	-0.0563
AGTAGAAC	-0.0507
ACCTTAGA	-0.0705
AGAAGCTG	-0.155
CAGGGCCG	-0.169
AGTATAAC	0.185
CGGAGTCA	0.474
CCCGGCTA	-0.124
GGTTAACA	0.0261
CAACCCTC	-0.257
ATTGCTGC	-0.022
AATTAGTG	0.18
CCTGGCAC	-0.256
CTATTAAA	0.0826
TCGTTCAA	-0.0686
GAATCCCA	0.0678
CAGGTCTC	-0.172
TATCCCGA	-0.00656
ATCTTAAC	0.108
CGCGCGGC	0.0401
CAAAAAGC	0.259
AGGTTTAG	0.0298
AACAATTC	0.213
ATTGTCCA	-0.0211

Sequence	PBM E-score
ACAGGGTC	-0.117
AGGGTACA	-0.0378
ATCTTGAA	0.102
GTTTATGA	0.136
CGTCTTAA	0.0646
CTTTTACC	0.149
CTCTGGCA	-0.229
CTGTTGTC	0.0813
TAAGATAA	0.0591
TTCTTCAA	0.205
AATCAGCC	-0.0607
CAGTGAGA	0.077
AACGTTGT	0.0376
CGAAGACG	-0.112
CGCTTTTC	0.0913
GACAAGAC	-0.201
TCCAAACA	0.0698
CGATGTGA	-0.082
ATACCTGG	-0.266
AGCTTCTC	-0.219
CGGACAAA	0.286
GTCACGAA	0.05
GAACTTAC	0.00823
GGTGGCGA	-0.266
CACATACC	0.0756

Sequence	PBM E-score
AGTCGGTC	-0.0477
CGGTCTTA	0.071
AATGTTAC	0.113
CGGAACAA	0.285
AAAACGGC	0.0207
CTGGACGA	-0.369
AGCAAAAT	0.121
CGTGGGCC	-0.0428
CATGAATG	0.118
ATTATTAC	0.278
CCTAGGGC	-0.248
ATGTGCAG	-0.142
CCTTCTAA	0.034
ATATCATG	0.0236
CGAATACA	0.188
ATGCAGAA	0.077
GCAGTAAA	0.0571
AGTTTTCC	0.226
AGCTTAAC	0.0213
GCTGGCTA	-0.217
AAAACACG	0.149
ATATGTAG	0.104
CCAGCGGG	-0.13
GTAACCAC	-0.147
TGCGGCAA	-0.182

Sequence	PBM E-score
CTTCCTTC	-0.07
CATACTTC	-0.00145
AGAAAGAT	0.0929
AAACGCTG	-0.0876
ATTAGGGA	-0.0353
CTATGCTC	-0.249
ACGGTAGT	0.00498
AAGGTGTC	-0.141
GCCCACAC	-0.136
CGCAGGAG	-0.264
AATAGGGG	-0.00225
ATGACATG	-0.0203
CAGAGTAG	-0.18
ACAGGCGG	-0.216
AGGTACGG	-0.0665
CGCTGATA	0.00385
ACGGCTGG	-0.216
GCTTGGCA	-0.178
ACTGGCCT	-0.0518
TAAATATA	0.289
GACAGTCC	0.0519
ACGACAAG	-0.167
CCTAGTCA	-0.21
AAAGTGAC	0.111
GTCAAAAA	0.24

Sequence	PBM E-score
CTTCGAGA	-0.141
GTATGGCA	-0.116
GTCAGCTA	-0.149
CAGTATCA	-0.0758
ATGCCACG	-0.0512
GTGCGCGA	-0.195
CACACAAA	0.0659
AGAGGCAC	-0.167
CAGTTCAC	-0.065
ATATTGTG	-0.0184
ATTAACAG	0.0761
CTGAGCTA	-0.188
ACTTTTCG	0.243
TTAGAAAA	0.238
TAACTGAA	-0.0031
ACCACGGA	0.177
GCAGTGCA	-0.158
CACTTGTA	-0.0118
CCTGGCAG	-0.231
CCGTGGAA	0.00758
ACTGCAAA	0.0272
TATGCTGA	0.175
CCCTAACC	-0.148
CCTACTAA	-0.106
TGCGAGAA	-0.0708

Sequence	PBM E-score
CGAGCCCG	-0.187
CCGGTTCC	-0.0625
ACTTATCG	0.0437
ACCACTCT	-0.157
ACGTCGAC	0.0491
ATACCAAG	0.0542
CAACATTA	0.123
AGACTCGG	-0.0487
ACTCCTAC	0.0612
GCATAAGC	-0.116
CTGCCCAC	-0.291
CCCAGAGA	-0.247
ACCATACC	-0.219
AATATACC	0.0977
CATGTGTC	-0.192
AAAAGTTT	0.0651
ACGAGGAG	-0.0977
AAGTGGGC	-0.18
CCCTACGA	-0.185
CGACCTCA	-0.149
ATGAACCA	0.194
ATCAGCAT	0.107
AGTCTAAT	0.0885
AGGGTCTG	-0.239
GATTGACA	0.067

Sequence	PBM E-score
CCAAAGAA	0.0984
AGACATTC	-0.0169
CCTGTGCA	-0.242
CAGACCAG	-0.0969
CCACAGGC	-0.348
GCCACAAC	-0.0446
AGTACCGA	0.0697
AGAGCGCC	0.104
GATTGACC	-0.159
ACGAGCCA	-0.197
AAGCCCGC	0.00781
GACTGATC	0.0324
AGCCATCG	-0.224
ACTCGACC	-0.175
ATAGATAA	0.272
CACTGTAG	0.132
GGCAAGGA	0.0852
CAGCACTG	-0.0653
AAGAGAGC	-0.155
CCGGTAAA	0.206
CCATAAGC	-0.00945
AAGTCGCA	0.00847
ATGGCGCC	-0.262
AGACGGCA	-0.195
TATGTCAA	0.249

Sequence	PBM E-score
CCGATCCG	0.131
AATCGCGA	-0.0432
AAGCGGGC	-0.229
ATACCTCG	0.0427
CCTATCGC	-0.115
AAATTGTT	0.218
ATATGGTC	0.103
CCACGCAC	-0.164
CTCGCTTA	-0.00317
ATCTGCCA	-0.133
ACCACACA	0.109
GGAGGGCC	-0.145
CTGACCTA	-0.0719
ATAACCTG	0.0337
ATGATTGA	-0.0204
ACAGCTGC	-0.0869
CATTGTAA	0.155
ACCGCTGC	-0.326
AACCGCAG	-0.134
ACGACTCC	0.114
CATCATGA	0.00478
AGCTGAAT	-0.0191
CATCAGTA	0.0546
CCTAACGC	-0.118
CACTGTTA	-0.164

Sequence	PBM E-score
AACCGAGG	-0.154
CGTTCCTC	-0.0465
GAGTTGTA	0.317
CCCCGCCG	-0.0513
CGACTGAG	-0.122
AGTGGAAT	0.115
CATTAACA	0.104
ATAACTTA	0.212
ATTAAACA	0.219
AATATCTA	0.152
CAGCTCCC	-0.181
GGTGACGA	-0.0887
GAACCTCC	-0.0801
CCCTAGGG	-0.186
ATGACATC	-0.0331
CACCTCAA	-0.0696
AAAGACCA	-0.0834
CTTGCCAA	-0.0266
TTCAGGAA	-0.175
ACTGAATG	0.0699
CGCCTACG	-0.208
GGAACCTA	-0.00606
ATGAACGA	0.0148
ATTAGGCG	-0.0174
AATAATCT	0.267

Sequence	PBM E-score
TGACCAAA	0.0659
GTTAGATA	0.133
CCGTAAGG	-0.196
CACATGCC	-0.099
CTTGGGGA	-0.144
ACTCGCAT	0.0869
AGAGGTGG	-0.106
AGTAAAGG	0.0979
GAGCAGAC	-0.275
CACGCGAG	-0.136
TGACAACA	0.0885
ACTAGGCC	-0.243
GGCTTTTA	0.0718
ATCGTAAC	0.17
ACGGTGGG	-0.249
CGGTACCG	0.191
AAATAAGC	0.0396
ACTTGTAA	-0.00675
CGCGAGGA	-0.153
AATATGTC	0.163
GCTGGTCC	-0.143
TCCAAGCA	0.0134
CTGTCTAA	0.103
TCTAGGCA	-0.0476
CACGGTCG	-0.252

Sequence	PBM E-score
GATTCCGC	0.0522
CGAAAAGC	-0.0121
CAGAGGAA	-0.145
CCCGTGTC	-0.113
CCATTCGC	-0.258
TGTCGTAA	-0.0629
GCCAACTA	-0.145
ATTTAGTC	0.131
CAAGGCCA	-0.227
CGTGAGGC	0.006
CACCTCAG	-0.275
AGGGATCG	-0.175
CAGATTGC	0.0252
ACCGCCCT	-0.0957
ACGACTAT	0.0374
CTCATCCC	-0.185
GGCGGGAA	-0.211
CATCGGGC	-0.169
AAAGTAAG	0.0523
TGGATACA	-0.0953
CTAAACAC	0.153
CCCGTTGA	-0.0989
GGCGGACC	0.128
GCCAGCAA	-0.13
ACGACTAA	-0.0815

Sequence	PBM E-score
ACACCCCC	-0.341
CGCCGACG	-0.043
CAGCTTCC	-0.253
GGCGCCAC	-0.251
GTGGGAAC	-0.297
CATCGATA	0.0644
CAACTGCC	-0.00509
GGCCTAAC	-0.109
GCTAGGGA	-0.308
TCAGTGAA	-0.0733
ACCTGGCG	-0.261
ATCCACCC	-0.254
CCATGATC	-0.201
CCCTAAGA	-0.229
AACCTATT	0.00732
AGGGAACG	-0.168
ACTGATTG	-0.079
CTTTTTCA	0.108
AGATATAA	0.186
